Self-cleavage data for 83 variants are collected here from the RNAGym collection of RNA variant scans (doi:10.7554/elife.90254).

First the molecules themselves.
B1: OR4K15 (parent)
chain: GUUAACGGUCAUAGGCCAUGGAAACUAGGAGCACCAUUUCGCUGCCAGUGAAGAAAUGAACAAAGAAAAUCUGGGCCAGGCAGGCAUCAAAAGAAAUAGUCUUGCGCUCAACCAGAAAGUCUGUAAUCAUUUUAAGGGUA

Read counts are not given, so values of variants with three or more changes are uncertain.

In the data set the parent is B1. Briefly: self-cleavage, relative activity (ratio to wild type); higher = more cleavage; in vitro, sequencing; the parent is a self-cleaving ribozyme.
For the variant C34U A36U A134G, the self-cleavage came to 1.67.

A33G A64G U70C U100A U103C U120C U133C: the self-cleavage turned out to be 0.05.

For the variant A33G A63U A91G A95G U127C U131A, the self-cleavage is 1.41.

With A33G G106U A125U, the self-cleavage amounted to 0.01.

In the case of A33U A56G A60G A69G, the self-cleavage is 0.29.

As for A36G A55G A64G A86U U108C, the self-cleavage was determined as 0.

On to A33G U102A U122C, for which the self-cleavage worked out at 0.32.

In the case of C35U A90G A116G, the self-cleavage worked out at 0.1.

Consider A33U U43A A60G, for which the self-cleavage stood at 1.73.

Take C35U U72A A95G: the self-cleavage worked out at 0.19.

For the variant C35U U43A A111C A114G, the self-cleavage was determined as 0.01.

As for U37C A54G U120A, the self-cleavage turned out to be 1.14.

Regarding A36U U37C G48U A62G A78C, the self-cleavage stood at 0.42.

As to A36G U38A A63U A66G, the self-cleavage came out at 1.53.

Take A33G A60G A64G A69G: the self-cleavage worked out at 0.19.

In the case of A36G C128U A129G, the self-cleavage came out at 1.92.

Turning to A33G A117U A129U, the self-cleavage worked out at 0.81.

Consider A36G A60G U103C, for which the self-cleavage worked out at 0.09.

Consider U37C A60G U100C, for which the self-cleavage turned out to be 1.8.

Regarding U37C A63G A68G G74A A135G, the self-cleavage turned out to be 0.21.

A36U A59U U108C: the self-cleavage turned out to be 0.01.

With A33G A68G G83A A114U U122C, the self-cleavage turned out to be 0.01.

Consider A33G A59G A66G A78U A134G, for which the self-cleavage was 0.14.

With A33G A66U A116G, the self-cleavage was determined as 0.33.

Take A33G U108A U122C: the self-cleavage is 0.01.

For A36G U102C U124C, the self-cleavage worked out at 1.17.

For C35G A54G U100C U103C, the self-cleavage is 1.91.

A33U A68G U103A: the self-cleavage is 1.59.

For A36U A90G U102C A135G, the self-cleavage was 2.19.

Take A33G A60G A92G U124A A129G: the self-cleavage came to 0.21.

For the variant C35U A60U U70A, the self-cleavage came to 0.65.

As for A33U A90G U120C, the self-cleavage was 1.11.

In the case of C34U A68G A117U U131C U132C, the self-cleavage came to 1.39.

On to U37C A64G C88U, for which the self-cleavage stood at 1.63.

As for A36U A95G U127C, the self-cleavage turned out to be 1.89.

For the variant A33U U37G U57A A114G, the self-cleavage was 0.23.

For the variant A33G U39C A91G A111G U124A, the self-cleavage came out at 0.

Regarding A33G C45G A116G, the self-cleavage worked out at 0.63.

For U37C A51G A59G A118G, the self-cleavage is 0.21.

For the variant A33G U43G U127A, the self-cleavage is 1.15.

Regarding A36U G44A A51G A111G, the self-cleavage turned out to be 0.03.

Regarding A33G A64G A135G, the self-cleavage was 1.15.

A33G U39C U97A U120C: the self-cleavage stood at 0.23.

As to A33G A56G A68G, the self-cleavage stood at 0.68.

With A36C U103C U120C U133C, the self-cleavage turned out to be 0.62.

Turning to A33G U57G U120G, the self-cleavage is 0.58.

A33G A59G A60G U132A: the self-cleavage came to 0.12.

With A36G U37C A82U, the self-cleavage was 0.34.

Consider A36U U43C A54G, for which the self-cleavage came out at 1.65.

Take A36G A82U U131G: the self-cleavage stood at 0.3.

In the case of A36G A66G A95G, the self-cleavage stood at 1.61.

For the variant A33U A52G U57A A63G, the self-cleavage was found to be 1.52.

Regarding C34A U38C A86G A94G U132A, the self-cleavage came to 1.66.

Regarding U37C A52U A64G A91G A126G, the self-cleavage stood at 0.75.

With A33G U39C A95G U139C, the self-cleavage is 1.9.

On to A33U A55G A135G, for which the self-cleavage stood at 0.96.

With A36U A62G A116G A118G U124C A135G, the self-cleavage was 0.3.

For A33U A36G U43C, the self-cleavage turned out to be 1.87.

Consider C35U G53A U87G A114U, for which the self-cleavage was 0.02.

In the case of A33G U39A U43A A51G A69G A91G, the self-cleavage was found to be 0.69.

As for U37C A56G A94G, the self-cleavage is 1.05.

A33G U57C A68G A78G A91G: the self-cleavage came out at 0.04.

With A36G A52G A56G A95G A135U, the self-cleavage came out at 0.73.

Turning to A33G A64C A82U, the self-cleavage is 0.12.

As for A36C A68G A125G, the self-cleavage was 0.58.

Regarding A36G U108C A117G, the self-cleavage worked out at 0.

Regarding A33U A64G U130C, the self-cleavage worked out at 1.33.

With A36C C40A A51G A89G A94G A96G, the self-cleavage turned out to be 1.47.

For A33G A94G A111U, the self-cleavage was 0.08.

With A33G U57C A126G, the self-cleavage stood at 0.42.

Regarding A36U U57C A89G A96G, the self-cleavage came to 0.36.

Consider A36G A91G U108A, for which the self-cleavage was determined as 0.03.

On to A36G A63U U131C, for which the self-cleavage stood at 1.12.

Regarding A33U A60C A62U, the self-cleavage was 2.03.

A36C A51G G80A A111G U127C: the self-cleavage turned out to be 0.

A33G A64G U130C: the self-cleavage turned out to be 0.48.

A36G G50U A68G U87C: the self-cleavage was found to be 1.84.

Take A33G A59G A90G A98G U122A A126G: the self-cleavage was found to be 0.11.

On to A36U A56G A59G A135G, for which the self-cleavage came out at 0.93.

On to A36C U37C A89C, for which the self-cleavage was found to be 0.92.

As to C35U U38C U57A A60G A92G U102C, the self-cleavage stood at 1.

A33G A56G A90G: the self-cleavage came to 0.43.

With A36G A91G U102C A110G, the self-cleavage came out at 0.18.
